From patent US9975943B2, “Polypeptides” (AFFIBODY AB, priority 2013, dated 2018) come the findings set out here.

One data set relates to mouse IgG in serum. Description: Increased IgG catabolism in mice, mouse IgG ELISA. Format: in vivo. To be noted: male NMRI mice; 16.3 μmol/kg; five i.v. injections at 0, 24, 48, 72 and 96 h. As to the method: The mice were treated with five intravenous injections given at 0, 24, 48, 72 and 96 h. Serum samples were taken at 0, 72, 120 and 168 h (termination of study) and stored at −20° C. The concentration of mouse IgG in serum was quantified by ELISA.
The concentration of mouse IgG in mouse serum samples was analyzed by a mouse IgG ELISA kit (Mabtech 3825-1AD-6) and performed as described by the manufacturer. The concentration of mIgG was calculated from a standard curve provided and GraphPad prism5 using a non-linear regression formula. The concentration of IgG in individual mice at 24, 72, 120 and 168 h were related to the level at 0 h and the results are therefore presented as percentage of IgG (0 h).
For orientation: ELISA stands for enzyme-linked immunosorbent assay.

The target in data set [1] is T1, human FcRn (Homo sapiens, UniProt P55899). Description: AlphaLISA blocking assay (IgG binding to FcRn). On the set-up: purchased Biorbyt orb84388. To be noted: His6-tagged primary Z variants and dimers; 10 nM biotinylated human FcRn; pH 6.0. As to the method: The potential of Z variants to inhibit binding of IgG to FcRn was analyzed in an AlphaLISA assay with an EnSpire multiplate reader 2300 (Perkin Elmer). Human IgG (Roactemra) was immobilized on AlphaLISA acceptor beads (Perkin Elmer, cat. no. 6772002) according to the manufacturer's recommendations. Stepwise serial dilutions 1:3 of His-tagged Z variants to final concentrations of 250 nM to 38 pM were made in a 384-well plate (Perkin Elmer, cat. no. G6005350) and incubated for 45 min with 10 nM biotinylated human FcRn (Biorbyt, cat. no. orb84388; biotinylated essentially as described in Example 2) in AlphaLISA buffer (Perkin Elmer, cat. no. AL000F) adjusted to pH 6.0 using HCl. IgG-coated Acceptor beads were added to a final concentration of 10 μM and incubated for 45 min. Finally, streptavidin coated Donor beads (Perkin Elmer, cat. no. 6772002) were added to a final concentration of 40 μg/ml and incubated for 30 min. All incubations were performed at RT in the dark. The plate was analyzed in the EnSpire instrument and the IC50 values were calculated using GraphPad Prism 5.
The potential of Z variants to inhibit binding of IgG to FcRn was analyzed in the AlphaLISA assay described in Example 3.

In another data set the target is T2, mFcRn (Mus musculus, UniProt Q61559, INS109QKRG).
T2 construct: made in house; host or cells: mouse 3T3 cells
T2 sequence (Q61559 with tags, fused parts or gaps INS109QKRG): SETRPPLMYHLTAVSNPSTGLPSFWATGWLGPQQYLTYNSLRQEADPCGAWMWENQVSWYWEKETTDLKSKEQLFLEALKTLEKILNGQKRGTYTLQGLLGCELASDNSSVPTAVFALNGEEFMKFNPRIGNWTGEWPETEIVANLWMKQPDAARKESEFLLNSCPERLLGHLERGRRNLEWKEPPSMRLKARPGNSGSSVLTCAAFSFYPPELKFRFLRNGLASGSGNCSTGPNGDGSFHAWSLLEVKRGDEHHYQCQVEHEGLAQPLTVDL
T2 sequence (P01887 21-119 partner): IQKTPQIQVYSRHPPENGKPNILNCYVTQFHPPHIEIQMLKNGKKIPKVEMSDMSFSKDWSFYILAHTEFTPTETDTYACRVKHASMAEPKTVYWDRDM
Put plainly: Biacore 3000 affinity, one site binding saturation model. To be noted: His6-tagged, 25° C. As to the method: In a separate experiment, the affinity of the interactions of Z variants to hFcRn (SEQ ID NO:1065) and mFcRn (SEQ ID NO:1070), respectively, was measured at both pH 6.0 and pH 7.4 on a Biacore 3000 instrument (GE Healthcare). hFcRn and mFcRn were produced essentially as described in Example 1 but using mouse 3T3 cells instead of human SKOV-3 cells for production of mFcRn, and immobilized on separate flow cells on a CM5 chip in acetate buffer at pH 4.65. The immobilization level was approximately 1000 RU for both receptors. A reference flow cell was created by activation and deactivation. 0.005% PCT pH 6.0 or 7.4 was used as running buffer and for dilution of the analytes. All analyses were performed at 25° C. […] The affinities were derived using GraphPad Prism 5 software, using a one site binding saturation model.

In data set [2] the target is T1, human FcRn. Put plainly: Biacore binding at pH 6.0 and dissociation at pH 6.0 vs pH 7.4. To be noted: comparison among the seventeen Z variants. Also on record: made in house; host or cells: human SKOV-3 cells, lentivirally transduced, secreted; purified on immobilized human IgG. As to the method:
The interaction of FcRn binding His6-tagged Z variants with human FcRn was analyzed in a Biacore 2000 instrument (GE Healthcare). Human FcRn was immobilized in a flow cell on the carboxylated dextran layer of a CM5 chip surface (GE Healthcare). The immobilization was performed using amine coupling chemistry according to the manufacturer's protocol and using HBS-EP (GE Healthcare) as running buffer. One flow cell surface on the chip was activated and deactivated for use as blank during analyte injections. In the two binding experiments presented below, McIlvaines phosphate-citrate buffer pH 6.0 supplemented with 0.005% Tween-20 (0.005% PCT) was used as running buffer. In all experiments, a flow rate of 50 μl/min was used.
In one experiment, the dissociation at pH 6.0 was compared to the dissociation at pH 7.4. His6-tagged Z variants and a human monoclonal IgG1 were diluted in running buffer to a final concentration of 250 nM or 2.5 nM, respectively, and injected over the FcRn chip for 1 minute using the co-inject procedure. The second injection of the co-inject procedure, representing the dissociation phase of the interactions, contained either running buffer (pH 6.0) or 0.005% PCT pH 7.4. […] IgG was allowed to dissociate for 4 minutes before equilibration. […] The results were analyzed in BiaEvaluation software 4.1 (GE Healthcare). […]
In general terms: Surface plasmon resonance follows binding to a sensor surface in real time, without labels.

Data set [3] can be described thus: CD analysis with variable temperature measurement. Format: physicochemical. To be noted: His6-tagged Z variants 0.5 mg/ml in PBS; CD at 221 nm, 20 to 90° C. The method, then: Purified His6-tagged Z variants were diluted to 0.5 mg/ml in PBS. For each diluted Z variant, a CD spectrum at 250-195 nm or 250-190 nm was obtained at 20° C. In addition, a variable temperature measurement (VTM) was performed to determine the melting temperature (Tm). In the VTM, the absorbance was measured at 221 nm while the temperature was raised from 20 to 90° C., with a temperature slope of 5° C./min. A new CD spectrum was obtained at 20° C. after the heating procedure in order to study the refolding ability of the Z variants. The CD measurements were performed on a Jasco J-810 spectropolarimeter (Jasco Scandinavia AB) using a cell with an optical path-length of 1 mm.

pIC50: −log10 of the molar value. Where two headings read alike, the source gives them in different places.

With “Z11948: Z07918 but starting with the amino acids AE instead of VD; in Table 6 and PK as fusion to PP013-Z03638 (AEAKYAKEQDAAAHEIRWLPNLTFDQRVAFIHKLADDPSQSSELLSEAKKLNDSQAPK; Engineered FcRn binding polypeptide)”, in the data set with mouse IgG in serum, the “concentration of endogenous IgG in mice” value is “lowered the concentration of endogenous IgG”.
One may read the pIC50 as the negative decadic logarithm of the IC50, by convention in mol/L. By Kd is commonly meant the free concentration of one partner at which half of the binding sites on the other are occupied at equilibrium, for simple one-to-one binding. As for “Z10193: FcRn binding Z variant, 58 amino acid residues, from phage display selection (VDAKYAKEWMRAAHEIRWLPNLTFDQRVAFIHKLEDDPSQSSELLSEAKKLNDSQAPK; Engineered FcRn binding polypeptide)”, the pIC50 with human FcRn [1] was 7.92. Also, the dissociation constant (Kd) is 9.5e-08 M in the data set with mFcRn (pH 6.0, read-out: KD (M) mFcRn pH 6.0) and above 5e-07 M with mFcRn (pH 7.4, read-out: KD (M) mFcRn pH 7.4). In the data set with human FcRn [2], the dissociation curves entry is recorded as “slowest dissociation curves”. Besides, in data set [3], the “Tm (° C.)” value was determined as 59 °C.
